# The supplement of paper PMC11417369
# ± gives the standard deviation of the averaged measurements. Some of the results follow.
# System: PfAP2-LT AP2 domain (GST-tagged)
# Test: gcPBM binding intensity (ln(normalized median fluorescence intensity)); higher = stronger DNA binding
# Summary of the method: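 An Agilent 4 × 180k array of primer-extended double-stranded 36-bp intergenic genomic probes, with negative controls, was incubated for 1 h with GST-tagged P. falciparum DNA-binding domains expressed in E. coli. Alexa488 anti-GST antibody detected bound protein, scanned at 488 nm. Binding intensity is the highest Masliner-normalised natural-log median intensity across replicate spots of either probe orientation.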
row,Sequence,gcPBM binding intensity (ln)
1,ATATGTTACAGACACACACACACATAAAAAAACAAA [CACACA_site3248],9.96 ± 0.28
2,AGTATAAAAATATATTTACACACTATATATATCGAA [CACACA_site8494],8.81 ± 0.4
3,TATTGTTGTTCATGTACACACTATAATAAAAGCAAT [CACACA_site6148],8.93 ± 0.42
4,AGGTACTTTTTTAAAACACACATATAACATATACAC [CACACA_site6629],8.88 ± 0.4
5,ACCCCCAATACGGAAACACACAAGTTATTTTATCAT [CACACA_site8874],9.6 ± 0.21
6,AATAATCTATATTGTACACACAAAATGGGAAAAAAA [CACACA_site6969],9 ± 0.47
7,AATTAGATTTACTGAAGTACTTAATTTATTTTATTA [XGTACX_site3407],8.77 ± 0.47
8,ATATATTTATATATTACACACAATATTGTACAGATA [CACACA_site8215],9.01 ± 0.4
9,GAAGGAATATACAATTGTACTTGGCAAAAAAAAAAA [XGTACX_site1884],8.78 ± 0.54
10,AAAAAAGGAAAAGATACACACCGTAAATTAAAATTT [CACACA_site5908],9.06 ± 0.43
11,GTTAAGAATATATAATGTACTTATTTTAATATAGTA [XGTACX_site6088],8.46 ± 0.49
12,AAATACTTGTCATATTGTACATGTTTGTGATATATA [XGTACX_site3185],8.85 ± 0.3
13,ATAATTTGGAAACACACACACACACCCACATATATA [CACACA_site2286],10.28 ± 0.064
14,TGTTTATTTTTAAAAAGTACATATATAAAAAATATC [XGTACX_site4902],8.35 ± 0.32
15,TTAAATGAAAAATGGGGTACATATATACAAATATAT [XGTACX_site5931],8.72 ± 0.45
16,AAAAAAAAATACTACTGTACTTTTTTTGGACATCTA [XGTACX_site1096],8.4 ± 0.49
17,TGATTATACGCACGCGCACACACAACCAAAAAAAAA [CACACA_site3537],9.4 ± 0.38
18,AAAAAAAAAGATCACACACACATAAATATAAACAAA [CACACA_site5285],9.72 ± 0.22
19,TGATATTATTATAAGGTGCTTAAAAATAAAGATAAT [GTGCAC_site9539],8.62 ± 0.45

row,Sequence,gcPBM binding intensity (ln)
1,AAAAAAAAAAAAAAAAAAAAAAAAAAAAGTTAAAAA [TGCATGCA_negctrl_site74],8.43 ± 0.3
2,AAAATTAAAATAGTAATACACACTTCATAGGAAATG [CACACA_site1762],8.79 ± 0.39
3,AACAAGAAATAATCACGTACACATTATAATAACTAA [XGTACX_site8184],9.02 ± 0.41
4,CTTTAATATTTTATTTCACACACATAAATGCCCCAA [CACACA_site8569],9.11 ± 0.48
5,TAAAATATTGTTATTACATGCAACCTTATGAAAAAT [TGCATGCA_site706],8.53 ± 0.28
6,ATATAAAATAATAAGGGTACAGGTCTCTGCGATGTT [XGTACX_site786],8.88 ± 0.38
7,AGAATTTTAGATTTAGCACACATTTTTTTTTTTTTT [CACACA_site4081],8.71 ± 0.47
8,ACTCGCATATTTAAATGTACTTAATTAGAAGAAAAA [XGTACX_site3304],8.47 ± 0.42
9,GGATTTATTTTATATACACACATACCTATATTTATA [CACACA_site7084],9.06 ± 0.39
10,ACTTTAATAATTCACTTATTTTCTTATTATATTATT [CACACA_negctrl_site556],8.92 ± 0.47
11,TTTTTAACTAACATATCAATTCCATACGTCGTCAAA [CACACA_negctrl_site560],8.41 ± 0.69
12,AATAGTGTATAAATTTGTACATATAATTAAAAGGAA [XGTACX_site1143],8.81 ± 0.47
13,AACTTGTGTGGATATTGTACTAACAATATGTATGAT [XGTACX_site6302],9.1 ± 0.39
14,AATAACTTTTTGAGATGTACATTTTTAATTCGTAGA [XGTACX_site8455],8.46 ± 0.34
15,TTATTCGAACAAAGGAAAAAATATATTCAAAGGAAA [TGCATGCA_negctrl_site215],8.51 ± 0.59
16,ATTCATAAAAAGAGGTGTACATTAATATAATATATA [XGTACX_site8283],8.7 ± 0.43
17,AAAACAAAAATATAAACACACATACATTGGTTTTCT [CACACA_site5405],8.96 ± 0.48
18,TCTATATAATACCAATGTACATAGTTTTAAGCATAA [XGTACX_site1889],8.62 ± 0.44
19,AGGATATGCAGACACACACACATATAGATTTATATA [CACACA_site7100],9.56 ± 0.43

row,Sequence,gcPBM binding intensity (ln)
1,ATAAATTGTAAAATGTGTACGCAGATATTGCGTATT [XGTACX_site332],8.81 ± 0.35
2,TTTTGTCTTCAAATCAAATGTATATAAAAAAAATAC [CACACA_negctrl_site1717],8.31 ± 0.34
3,TTTAAAAATTTGATCAAACACACGTTGCATAAATTA [CACACA_site3945],8.57 ± 0.38
4,ATAAGCATCTGGATATGTACTTATTCCTTTAAAGAT [XGTACX_site6225],8.77 ± 0.37
5,AAAAGTATATATTCAGTGCATAGTCTTTAAATATAA [GTGCAC_site9522],8.7 ± 0.38
6,TATATATAACATTGTACACACAAAGAAATAATATTA [CACACA_site3035],9 ± 0.45
7,ATAAAAAAGCAACATCATATGTTTTTATAGAGTATT [CACACA_negctrl_site745],8.65 ± 0.41
8,TATTAAAAATATTATGTACACACATTTTAGATATTT [CACACA_site8549],8.79 ± 0.51
9,AACAAGTTGCATGGTGCACACATGTATTTATATCTA [CACACA_site5414],9.14 ± 0.46
10,AAATTAATGAAATATACACACATATATAAATATATA [CACACA_site4378],8.9 ± 0.42
11,AAATTTTTTAATTTTTCTCATTTAATTTAAAAATTA [GTGCAC_negctrl_site155],8.09 ± 0.41
12,AAATTAAAGATAAAAGTGCAAAATTATAAATTTATT,8.79 ± 0.49
13,TATGCTACATTATATGTACACACATATACATATATA [CACACA_site8199],9.11 ± 0.42
14,ATTTATACGTAATATGCATAAATATAAATATATATA [XGTACX_negctrl_site133],8.74 ± 0.35
15,TTAAAATTTTAAAAATTTTAATTTTACAAAAAAAAT [TGCATGCA_negctrl_site227],7.92 ± 0.48
16,TTTCTTTCTTTCTTTTTTTAAATATTTTTTAAAAAT [TGCATGCA_negctrl_site206],8.21 ± 0.55
17,ATATAAATAAAAAAAAAAAAAAAAAAAAAAAAAAAA [CACACA_negctrl_site972],8.12 ± 0.3
18,ATCATCTTTATTCAAGTGCACTGAAAATTTTTTATA [GTGCAC_site9801],8.71 ± 0.38
